# Measurements as given in the supplement of paper PMC4604168 (melanoma cell lines).
# The other results are listed elsewhere or left out. Most values come without repeats; read them as rough.
# Experiments:
# Test in all cases: cell count relative to DMSO control; melanoma cells; higher = more viable cells
# Conditions in all cases: library dose: standard library concentration; 72 h
# G361 = tested on: G361
# IPC-298 = tested on: IPC-298
# IST-MEL1 = tested on: IST-MEL1
# LB2518-MEL = tested on: LB2518-MEL
# LOXIMVI = tested on: LOXIMVI
# MEL-HO = tested on: MEL-HO
# MZ2-MEL = tested on: MZ2-MEL
# MeWo = tested on: MeWo
# RPMI7951 = tested on: RPMI7951
# RVH-421 = tested on: RVH-421
# SkMel28 = tested on: SkMel28
# SkMel2 = tested on: SkMel2
# SkMel30 = tested on: SkMel30
# SkMel5 = tested on: SkMel5
# UACC257 = tested on: UACC257
# UACC62 = tested on: UACC62
# WM115 = tested on: WM115
# WM1716 = tested on: WM1716
# WM1745 = tested on: WM1745
# WM3526 = tested on: WM3526
# 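Further: cells treated in 1,536-well plates, then fixed and DAPI-stained, with nuclei counted from automated high-throughput microscope images.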
SMILES,cell count (G361) [%],cell count (IPC-298) [%],cell count (IST-MEL1) [%],cell count (LB2518-MEL) [%],cell count (LOXIMVI) [%],cell count (MEL-HO) [%],cell count (MZ2-MEL) [%],cell count (MeWo) [%],cell count (RPMI7951) [%],cell count (RVH-421) [%],cell count (SkMel28) [%],cell count (SkMel2) [%],cell count (SkMel30) [%],cell count (SkMel5) [%],cell count (UACC257) [%],cell count (UACC62) [%],cell count (WM115) [%],cell count (WM1716) [%],cell count (WM1745) [%],cell count (WM3526) [%]
"O=C(O)c1ccc2c(c1)nc(Nc1cccc(Cl)c1)c1ccncc12 + Nc1nc(F)nc2c1ncn2[C@@H]1O[C@H](CO)[C@@H](O)[C@@H]1O [fludarabine] (first compound 2 µM, partner dose 1 µM)",66,60.7,64,77.6,57.7,54.5,68.8,65.5,36.4,83.6,1.04,0.166,11.6,22.5,27.3,64.5,75.6,90.2,86.3,14.1
"O=C(Nc1cc(C(F)(F)F)cc(C(F)(F)F)c1)c1cc(Cl)ccc1O + CO[C@@H]1[C@H](N(C)C(=O)c2ccccc2)C[C@H]2O[C@]1(C)n1c3ccccc3c3c4c(c5c6ccccc6n2c5c31)C(=O)NC4 [Midostaurin] (first compound 0.08 µM, partner dose 0.4 µM)",45,60.8,74.2,68.3,60.9,70.1,51.9,72.9,37.8,83.6,40.3,38.8,67.8,47.5,66.1,63.6,46.1,51.2,26.3,65.8
"O=C(O)c1ccc2c(c1)nc(Nc1cccc(Cl)c1)c1ccncc12 + Cn1nnc2c(C(N)=O)ncn2c1=O [temozolomide] (first compound 2 µM, partner dose 10 µM)",70.5,67.3,67.2,110,44.8,58.6,59.4,78.9,53.9,90.7,27.3,69,62.3,67,99.5,48.7,74.7,42.1,62.9,64.8
"Cn1nnc2c(C(N)=O)ncn2c1=O [temozolomide] + CC(C)CCN1c2nc(Nc3cc(F)c(O)c(F)c3)ncc2N(C)C(=O)C1C [BID1870] (first compound 10 µM, partner dose 1 µM)",74.7,66.6,74.8,87.7,74.8,78.1,74.6,85.3,63.1,96.7,40,85.7,43.8,73.4,80.7,82.9,86.4,44.7,97,63.2
"Cn1nnc2c(C(N)=O)ncn2c1=O [temozolomide] + COc1cc2c(Oc3ccc4[nH]c(C)cc4c3F)ncnc2cc1OCCCN1CCCC1 [cediranib] (first compound 10 µM, partner dose 2 µM)",95.7,72.7,73,90.7,56.7,94.7,76.3,92.3,73.3,63.4,49.8,82.7,53.8,89.2,94.1,52.7,65.1,52.4,73.2,81
"Cc1cc(N2CCOCC2)cc2[nH]c(-c3c(NC[C@@H](O)c4cccc(Cl)c4)cc[nH]c3=O)nc12 + Cn1cncc1[C@@](N)(c1ccc(Cl)cc1)c1ccc2c(c1)c(-c1cccc(Cl)c1)cc(=O)n2C [tipifarnib] (first compound 1 µM, partner dose 0.05 µM)",63.6,91.4,78.7,62.8,54.4,84.5,97.3,75.7,54.1,83.1,52,66.5,89.4,71,89.2,73.9,61.4,59.8,54,59.5
"Cn1nnc2c(C(N)=O)ncn2c1=O [temozolomide] + CN(NC(=O)CC(=O)NN(C)C(=S)c1ccccc1)C(=S)c1ccccc1 [STA4783] (first compound 10 µM, partner dose 0.03 µM)",36.1,57.2,33.6,26.8,56.9,86.8,84.1,22.6,94.3,73.7,28.4,69.6,59.7,62.2,110,46.2,23.9,56.6,13.7,105
"O=C(O)[C@@H]1[O][Sb](=[O])([O][Sb]2(=[O])[O][C@H]([C@H](O)CO)[C@H](O)[C@H](C(=O)O)[O]2)[O][C@H]([C@H](O)CO)[C@@H]1O (stereo not given in full) [stibogluconate] + C[C@@H]1CCN(C(=O)CC#N)C[C@@H]1N(C)c1ncnc2[nH]ccc12 [CP690550] (first compound 10 µM, partner dose 5 µM)",121,132,109,80.8,114,116,127,111,162,125,155,96.8,101,111,105,89.3,99.5,104,110,99.4
